# The whole screen tested about 200,000 compounds, of which about 10 (0.005%) were called active. This list was built around the results that the source calls inconclusive (neither active nor inactive); the mix of calls is not that of the screen. The call rests on the fitted dose curve; in most records, active means well fitted inhibition curve with a large enough effect; inconclusive means small, poorly fitted or top-dose-only effect, or effect the other way, or another doubt; inactive means no such curve, though single readings can be large or run the other way. Potencies of inconclusive entries are left out as doubtful fits.
# Biological target: Lysosomal alpha-glucosidase (Homo sapiens) (UniProt P10253)
# Test: qHTS Assay for Inhibitors of Human alpha-Glucosidase as a Potential Chaperone Treatment of Pompe Disease;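 on activity change, negative = inhibition: plate controls were uninhibited enzyme wells for no effect and no-enzyme background for full effect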
# Details: purified human GAA, 4-MU-alpha-glucoside fluorescence; activity change, negative = inhibition: at 76.9 µM (top of the series) unless noted
# How it was run: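 Activity normalized between no-enzyme (basal) and enzyme-only wells. Conditions: 4 nM human enzyme, 400 uM fluorogenic substrate, citrate/phosphate pH 5.0 with Tween-20, 20 min room temperature, compounds up to 77 uM.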
# Potency means the concentration at half of the fitted maximal effect; tags describe the fitted curve by direction and shape.
Compound,Potency,"activity change, negative = inhibition"
CN(C(=O)c1ccc(S(=O)(=O)NC2CCCC2)cc1)C1CCCCC1,"inconclusive [inhibitor, single point]",
COCCCNC(=S)NCCNc1nc2cc(C)cc(C)c2cc1C#N,,inconclusive: 16.2% [activator]
CC[n+]1c(/C=C2\C=C(C)CC(C)(C)C2)sc2ccccc21,"inconclusive [inhibitor, partial curve, poor fit]",
COCCn1cc(C(=O)NCc2ccco2)c2c3ccccc3n(C)c2c1=O,,inconclusive: 17.5% [activator]
Cc1ccc2[nH]cc(CCNC(=O)c3cccnc3)c2c1,"inconclusive [inhibitor, single point]",
NNc1nc2ccccc2nc1C(F)(F)F,inactive,
CC(=O)C1=C(O)C(=O)N(Cc2ccccc2)C1c1cccs1 (configuration not stated),"inconclusive [inhibitor, single point]",
CCN(CC)C(=O)c1cc2c(=O)n3ccccc3nc2s1,"inconclusive [activator, partial curve]",
COC(=O)c1ccccc1NC(=O)CSc1nc(O)c(-c2ccccc2)c(=O)[nH]1,"inconclusive [inhibitor, single point]",
O=C(CSc1n[nH]c(-c2cccs2)n1)N1CCN(S(=O)(=O)c2ccc3ccccc3c2)CC1,"inconclusive [inhibitor, partial curve]",
COc1ccc(OC)c(Nc2cc(C)nc3ccccc23)c1,"inconclusive [inhibitor, single point]",
COc1cccc(Oc2nc3ncn(Cc4ccccc4)c3c(=O)n2C)c1,"inconclusive [inhibitor, full curve, poor fit]",
CN(C)C(CNC(=O)NC1CCCCC1)c1cccnc1 (configuration not stated),,inconclusive: 11.2% [activator]
CC(=O)Nc1ccc2nc3c(=O)n(C)c(=O)n(C)c3nc2c1,"inconclusive [inhibitor, partial curve, poor fit]",
CCOc1ccccc1N=c1oc2cc(O)ccc2cc1C(=O)NCC1CCCO1 (configuration not stated),"inconclusive [activator, partial curve]",
CCOC(=O)N1CCN(S(=O)(=O)N(C)C)CC1,"inconclusive [inhibitor, single point]",
CC(=O)NCC(=O)OCC(=O)c1ccccc1,"inconclusive [inhibitor, single point]",
NC(=O)C1CCN(CCS(=O)(=O)c2ccc(Cl)cc2)CC1,"inconclusive [inhibitor, full curve, poor fit]",
CC(C)CC(=O)NC(NC(=S)Nc1cccc2cccnc12)C(Cl)(Cl)Cl (configuration not stated),,inconclusive: -18.5% [inhibitor]
Cc1cc(C)nc(N2CCC(C(=O)NCC3CCCCC3)CC2)n1,"inconclusive [inhibitor, single point]",
COC(=O)c1c(NC(=O)c2ccc(N(C)S(=O)(=O)c3ccc(C)cc3)cc2)sc2c1CCCC2,"inconclusive [activator, partial curve]",

Compound,Potency,"activity change, negative = inhibition"
COc1ccccc1NC(=O)N(Cc1ccco1)Cc1cc2ccc(C)c(C)c2[nH]c1=O,"inconclusive [inhibitor, single point]",
Cc1ccccc1CN1CCN(C(=O)c2cccc(F)c2)CC1,"inconclusive [inhibitor, single point]",
CC(C)(C)C1CCC(OC(=O)CCC(=O)Nc2ccccc2)CC1 (configuration not stated),"inconclusive [inhibitor, partial curve]",
COc1cccc2c1C(=O)O/C2=C/c1ccc2c(c1)OCO2,"inconclusive [activator, full curve, poor fit]",
Cc1cc(NC(=O)COC(=O)c2ccc(S(=O)(=O)N3CCCc4ccccc43)cc2)no1,"inconclusive [inhibitor, single point]",
CC1CCC(NC(=O)c2cc3c(s2)CS(=O)(=O)C3)CC1 (configuration not stated),"inconclusive [inhibitor, partial curve]",
COc1ccc(-c2cc(C(F)(F)F)n3ncc(C(=O)O)c3n2)cc1OC,,inconclusive: -15.9% [inhibitor]
O=[N+]([O-])c1cccc(-c2nnc(-c3ccccc3)o2)c1,,inconclusive: 14.4% [activator]
CCC(=O)N1CCN(c2ccc(Cl)cc2NC(=O)Cc2ccc(Cl)cc2)CC1,"inconclusive [inhibitor, single point]",
OCC#Cc1ncc(C(F)(F)F)cc1Cl,"inconclusive [inhibitor, single point]",
CCOc1ccc(NC(=O)CSc2nnc(N)s2)c([N+](=O)[O-])c1,"inconclusive [inhibitor, single point]",
N#Cc1cnn2cc(CCN3CCOCC3)c(-c3ccc(F)cc3)nc12,"inconclusive [inhibitor, single point]",
Cc1cccc(NC(=O)NC2CC3CCC(C2)N3Cc2ccco2)c1 (configuration not stated),,inconclusive: 15.5% [activator]
CCOC(=O)C(C)Sc1nc2c(c(=O)[nH]c(=O)n2C)n1Cc1ccc(Cl)cc1 (configuration not stated),"inconclusive [inhibitor, single point]",
Cc1cc(C)n2nc(SCC(=O)Nc3ccc(F)cc3)nc2n1,"inconclusive [inhibitor, single point]",
O=C(NCCN1CCOCC1)c1cc2c(=O)n3ccccc3nc2n1Cc1ccccc1,"inconclusive [activator, partial curve]",
Cc1ccc(CS(=O)(=O)c2ccc(C(=O)N3CCCCC3)cc2[N+](=O)[O-])cc1,"inconclusive [inhibitor, single point]",
COc1ccc(C(=O)N2CCCC(c3nc(-c4cccs4)no3)C2)cc1OC (configuration not stated),"inconclusive [inhibitor, partial curve, poor fit]",
CCCCn1c(=O)nc2n(-c3ccccc3)c3ccccc3cc-2c1=O,"inconclusive [activator, partial curve]",
CCOC(=O)C1CCN(C(=O)C(C)c2ccc([N+](=O)[O-])cc2)CC1 (configuration not stated),"inconclusive [inhibitor, full curve, poor fit]",
N#CC1(C#N)C(c2ccccc2)OC23CCCCC2C1(C#N)C(=N)O3 (configuration not stated),"inconclusive [activator, single point]",

Compound,Potency,"activity change, negative = inhibition"
COc1ccc(NC(=O)C2CC(=O)N(Cc3ccc(C)cc3)C2)cc1S(=O)(=O)N1CCCCC1 (configuration not stated),"inconclusive [inhibitor, single point]",
COc1cc(-c2nc(C(F)(F)F)c(OC)o2)cc(OC)c1OC,"inconclusive [inhibitor, single point]",
C(=C\c1nc2ccccc2[nH]1)/c1ccccc1,,inconclusive: 15.9% [activator]
O=C(c1cc2c(s1)-c1ccccc1OC2)N1CCc2ccccc2C1,"inconclusive [activator, partial curve]",
O=C(Nc1ccccc1C(=O)OCn1nnc2ccccc2c1=O)c1ccco1,"inconclusive [inhibitor, single point]",
COCCN1CCn2c(nc3cc(NC(=O)c4ccc(OC)cc4)ccc32)C1,"inconclusive [inhibitor, single point]",
O=C(Nc1ccccc1C(=O)N/N=C/c1ccc(F)cc1)c1ccccc1Br,inactive,
COc1cccc(OCC(=O)O/N=C(\N)c2ccc(OC)c(OC)c2)c1,"inconclusive [inhibitor, single point]",
COC1C=CC(CNC(=O)c2cc3c(=O)n4cccc(C)c4nc3n2C)(OC)O1 (configuration not stated),"inconclusive [activator, partial curve]",
O=C1c2ccccc2C(=O)C1c1nccc2ccccc12,inactive,
O=C(NC1CC1)c1nc2c(nnn2Cc2ccccc2Cl)c(=O)[nH]1,"inconclusive [inhibitor, partial curve]",
COc1ccc([N+](=O)[O-])cc1N(CC(=O)NCCC1=CCCCC1)S(C)(=O)=O,"inconclusive [inhibitor, full curve, poor fit]",
COC(=O)c1sccc1-c1ccc(/C=N/OCc2c(Cl)cccc2Cl)o1,,inconclusive: 15.5% [activator]
CC(=O)Nc1ccc(S(=O)(=O)Nc2ccc(F)c([N+](=O)[O-])c2)cc1,"inconclusive [inhibitor, full curve, poor fit]",
N#Cc1ccc(C(=O)CSc2n[nH]c(=O)n2-c2cccnc2)cc1,"inconclusive [inhibitor, full curve, poor fit]",
CC(=O)OC1CC(C)(C)N(OC(=O)CCCN2C(=O)c3ccccc3C2=O)C(C)(C)C1,"inconclusive [inhibitor, single point]",
CCOc1ccc(S(=O)(=O)Nc2ccc(C(=O)N/N=C/c3c(C)nn(-c4ccccc4)c3N3CCCC3)cc2)cc1,"inconclusive [inhibitor, partial curve]",
CC(=O)c1ccccc1Oc1nc(CN2CCOCC2)nc2scc(-c3cccs3)c12,,inconclusive: -18.7% [inhibitor]
Cc1ccnc(NC(=O)CCC(=O)N(CC(=O)NCc2ccccc2)Cc2ccco2)c1,"inconclusive [inhibitor, partial curve]",
COC(=O)c1ccc(C(=O)OC)c(NC(=S)N2CCCCC2)c1,"inconclusive [activator, full curve, poor fit]",

# — PubChem BioAssay AID1466 (National Center for Advancing Translational Sciences (NCATS), 2008)
